Results: the supplement of paper PMC3334620
In all, about 33,000 sequences were measured (“E-score (-0.5 to 0.5)”: median about -0.054, highest 2% from about 0.35 on). The list shows a part of the results.

biological target: T1, Stb5 (UniProt P38699); assay: PBM E-score (8-mer binding enrichment) (E-score (-0.5 to 0.5)); higher = stronger / more preferred TF binding; most listed sequences are background and not binding sites; settings: protein concentration: 200 nM; construct: GST-full length
T1 sequence: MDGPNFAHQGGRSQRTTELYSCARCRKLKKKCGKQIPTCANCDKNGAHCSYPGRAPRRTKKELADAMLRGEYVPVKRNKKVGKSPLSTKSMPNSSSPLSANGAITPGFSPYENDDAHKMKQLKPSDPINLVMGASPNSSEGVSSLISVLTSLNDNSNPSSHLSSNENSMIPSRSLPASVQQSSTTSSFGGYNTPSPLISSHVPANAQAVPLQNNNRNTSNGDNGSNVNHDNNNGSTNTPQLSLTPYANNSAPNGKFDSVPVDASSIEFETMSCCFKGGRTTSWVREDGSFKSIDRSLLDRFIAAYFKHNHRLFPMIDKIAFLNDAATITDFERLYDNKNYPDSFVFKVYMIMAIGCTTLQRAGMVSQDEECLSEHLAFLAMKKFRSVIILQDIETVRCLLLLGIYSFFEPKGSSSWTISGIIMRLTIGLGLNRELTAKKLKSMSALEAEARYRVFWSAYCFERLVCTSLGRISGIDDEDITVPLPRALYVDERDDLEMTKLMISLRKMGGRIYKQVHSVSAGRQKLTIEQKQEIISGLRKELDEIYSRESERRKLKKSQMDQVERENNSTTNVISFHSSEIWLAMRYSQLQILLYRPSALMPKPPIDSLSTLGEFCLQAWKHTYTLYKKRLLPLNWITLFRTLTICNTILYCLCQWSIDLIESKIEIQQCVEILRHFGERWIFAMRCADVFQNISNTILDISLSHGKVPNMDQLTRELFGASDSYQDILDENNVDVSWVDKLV
Method in brief: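 Each ungapped eight-base word and its reverse complement, pooled, received an E-score from the Universal PBM Analysis Suite. Underlying scans, normalised with masliner, recorded fluorescent anti-GST bound to GST-tagged yeast transcription factors. These were applied at about 100-200 nM to universal all-10-mer Agilent arrays double-stranded by primer extension.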

Sequence	PBM E-score
CACTTGAA	-0.272
AAACGCTT	-0.294
TCTTAACA	-0.0361
TATGGCGA	-0.128
CCCGATGA	0.226
ATAGAGAA	-0.142
ACAGGCAC	-0.106
CAGTCAAA	-0.207
CTAATCGA	-0.131
ACTCTGAA	-0.0962
AATACCGA	0.415
CGTGACTA	-0.0676
CAATGCAG	-0.109
AGCGCAGC	-0.0781
CTTACAGA	-0.093
AGATAAGA	-0.0432
AACACTCT	-0.137
CCCTGCGG	0.153
AAAAGTGG	-0.0292
ACAATGTC	-0.0176
AGTACTAT	-0.157
CCAAATGC	-0.205
ATTACTCA	-0.176
ACTATGCC	0.0989
TCGGGTCA	0.111

Sequence	PBM E-score
CGCTATAA	0.117
AAGCGTGT	-0.272
AGTTGTTA	-0.177
ATCCGCCG	0.285
AGCCAGTG	-0.181
GCCAAGTA	-0.0653
CGCTACTA	0.309
GCACGAAA	-0.0974
GCGCTGTA	0.134
ATTCGTGA	-0.182
ACATTGCG	-0.0644
AACACCCA	-0.0193
GACAATGA	-0.174
ATCATATC	0.0529
ATAGAGAT	-0.185
GAGTGCCA	-0.217
GCAGCCGA	-0.0391
ATCAACGA	0.0713
TATAATCA	0.0875
CAGGACAC	-0.00641
AAATATAT	0.118
AACAACCG	0.199
CAAGAATC	0.0759
CGCAAAAA	-0.126
TGCTGACA	-0.161

Sequence	PBM E-score
ACAGTATG	-0.121
AGTCCACA	-0.0556
AGCGCCTC	-0.0428
CACTTCCA	-0.171
ACCCCACT	-0.167
CATATAAC	0.166
CGGGTTCA	0.278
AAATGTAT	-0.0191
CAAGCCGA	0.0344
GGTCTTCA	-0.0128
AAGCACAG	-0.00662
AACATTAT	-0.0823
CAGATGTA	-0.12
GGGGATAA	0.345
AAAGCAAC	0.0355
AACAGTCG	0.0404
TCTAGCCA	-0.123
CCCTTCGC	-0.186
ACTCCGGG	0.327
CAAAGGGA	-0.175
TGCGTTAA	-0.101
CCGGGCCC	0.252
AGTACCAA	-0.0864
AGCACGTC	-0.0966
ACGGCGGA	0.278

Sequence	PBM E-score
CACGGTTA	0.118
CAAATTCC	0.0596
CCATAGAA	-0.0923
AACATCAC	-0.246
GGAATCGA	-0.0801
TTACAGAA	-0.253
GTATCACA	-0.0755
AGTCGTGG	-0.087
GAACAAAC	0.0428
ATACACAC	-0.094
TTGGTAAA	0.0329
GAATCGCC	0.243
CCCGTGAA	0.0202
AGGCTTCC	-0.303
CGGATGTA	0.381
AGGAGGCA	-0.174
TGATCTAA	-0.176
GTAGAAAA	-0.144
AGCCGATA	0.0102
GGTCTGAA	-0.0414
CTTGACTC	-0.182
ACTTACGG	0.185
ATGAGGCC	0.157
GCTGTGGA	0.12
AAATGGCC	0.179

Sequence	PBM E-score
ACAGACGG	0.139
GATTATAA	0.188
ACTGGTCA	-0.221
ATTGAGAG	0.0147
AAAGGATA	0.0318
AGCGGTAC	0.347
AAGGGCAT	-0.336
GTCTCAAC	0.0224
AGTCCGAT	0.414
AATCACAA	-0.0148
CGGCTCAC	0.0532
AATGGAAA	0.0137
CCGGGGAA	0.25
CGCGAGCC	0.0577
GCAGAGAA	-0.226
GCCGGTCC	0.324
AGGGTACG	-0.25
ATCCTAGA	-0.0568
ACAGTAGA	-0.158
CAGTAGGG	-0.244
ACGTCCCC	-0.0202
AGTGTGAC	-0.326
GGCGCGGA	0.326
ATAGTCGG	0.335
CCGAAGCC	0.0222

Sequence	PBM E-score
CAGTGCGA	-0.208
CCGGACTC	0.342
AGCTGATG	-0.0828
AATCCCCT	-0.165
AATTAGTC	0.0901
GCCCAACA	-0.0697
CAGTACAG	-0.158
CAGGCTTC	-0.167
CCGTCGCA	0.3
CAATACGG	0.202
AGCAAGTG	-0.315
CATTCGGG	0.184
ATTGGAGG	0.00227
GCGCGTCA	-0.0928
CCGTCTCA	0.229
ACTAGCTC	-0.083
CATGAAGG	-0.128
AATTTATA	-0.0843
GCATCCAA	-0.17
CGACTACC	-0.0429
ATGCGACC	0.0704
CTTGTTAC	-0.139
ATGGTTAA	0.0257
AAGGCCTT	-0.163
ACTCCTGC	0.00247

Sequence	PBM E-score
AAGCAGAG	-0.371
ACGCGACA	0.00921
GCACTTTA	0.0458
ATCTCGGG	0.0823
GCAGACCA	-0.0212
CATCTTAG	-0.16
ATCGATAG	-0.138
GTTTACCA	-0.153
GAATAAAC	-0.00654
AGCGTCCC	-0.123
ATGCCAAT	-0.171
GTAGGGGA	-0.115
ATCACCTC	0.0381
ACGCGACT	0.0289
GCGTGGTA	-0.04
ACGAGGAA	-0.12
CCGACGAG	0.321
CGGGGCAG	0.0716
CTGGAGGA	-0.159
CTTGAATC	-0.128
TCATAGCA	-0.108
GAGAACTA	-0.0787
CACCCAAG	0.0763
CAAGATCC	0.0549
TACCCCCA	-0.114

Sequence	PBM E-score
CGTGCTGA	-0.246
AGCCTTAC	-0.165
GCCGGGAA	0.209
AAACGACG	-0.12
AACCTAGG	-0.107
GATCCTGA	-0.0421
CCGAGGGC	0.149
CAGCATCC	-0.0392
GAGGTAGC	-0.0137
CGGTCACA	0.288
AATAGTGT	0.136
ACAAAACG	0.0772
ACCGGTCC	0.305
GACTAACA	-0.0382
CCTCTGTA	-0.0546
AGCAGACC	-0.218
AAGTCGTG	-0.195
GCCAACAA	-0.212
GGAGGGGA	-0.0609
CCAGCAAG	-0.224
TGCGGTAA	0.278
CCTATGCC	-0.122
CACGGCCA	0.181
CGTGGGTA	0.00915
CTTGTCAC	-0.146

Sequence	PBM E-score
AGATGTGG	-0.184
AGCATGAC	-0.172
CTGAGTCC	0.104
GCAAGTAC	-0.0806
AATCGATC	-0.158
GAAAGGGC	-0.0247
AAGACAAG	-0.0293
TTCTCCAA	-0.0481
GCAAGGCC	0.0215
CGCTAACG	0.203
ATATCCAA	-0.208
CCTAAACA	-0.0206
AATTGTTC	-0.101
TAGTCTAA	-0.0967
CCGAGCGC	0.185
TGCCTTAA	-0.192
CTACTACC	0.216
ACACGTAA	-0.104
GGTTAAAA	0.113
AACCCGCC	0.276
GTGATGTA	0.0144
GGGAGACC	-0.126
GTACAGAA	-0.0755
CTCACGCC	0.0191
CACACTGA	-0.266

Sequence	PBM E-score
GTCGCCCA	-0.158
ATATAGGG	0.118
GCACTCGA	-0.0488
ACTTATTA	-0.0696
CATAAGCG	0.0871
ACCAGTTC	-0.0439
CCTTGGCG	0.0694
CGAATAGA	-0.147
GAGCTTAA	-0.143
CCGGTACG	0.211
CTTCCACC	-0.0458
AGGAGTAA	0.00706
AAGTTGGC	-0.165
ATCAGGGA	-0.264
GCTGTTCC	-0.0799
ATGCTATG	-0.0998
CCGGAGAA	0.267
ATCTAGTA	-0.294
GTCCGTAA	0.264
GCCATCCA	-0.138
CGTGTGAC	-0.0314
GATTCGTA	0.076
AACAACCC	0.0448
CTGTCCTA	-0.166
ATTCGTGC	0.0377

Sequence	PBM E-score
AATTCTGG	-0.172
CATCGAAG	-0.0935
CGATTGCA	-0.0032
ACTCTAAG	0.0244
CCCCTTAG	-0.0287
ACTAGTCG	0.00798
TGATAGAA	-0.156
AATGTTGA	-0.149
GATTCTTA	0.0462
AAAGGCTT	-0.156
AAGTGCTG	-0.337
CGCTATCC	0.0597
AGGTCTAC	-0.231
GTATATTA	-0.0407
ACTCATTC	0.0349
TCTCCAAA	-0.197
CCGTTCTA	0.232
CGCATCAG	0.214
CCGCAACA	0.245
ACGGGTCG	0.203
ATATCACC	0.436
TGAAGGAA	-0.318
CGCGCCAA	0.0894
ATTTAATG	0.178
AGAGCCGC	0.287

Sequence	PBM E-score
ACGAAGCT	-0.126
ACATTGGA	-0.105
ATGTAGCC	-0.0209
CCGGTTAC	0.261
ATCAACCA	-0.105
CCGAGCCG	0.207
ATGATCAA	-0.267
GGTCCTAC	0.0984
TATTGAAA	-0.0523
GCTGATCA	-0.00416
ATTGCCCG	0.154
ATTCTTGA	-0.0618
CATGGCAG	-0.135
AGCGCTGA	0.102
GCGCCCAC	-0.0168
AGAGGGCA	-0.221
ACGAAACT	-0.0523
CGCAGCGC	0.101
ATTCGTCC	0.122
ATATACGA	-0.181
ACATGTCT	0.108
ATAGCGAC	0.0524
AAAGTGAG	-0.227
AAGCAACG	-0.00766
ATGACTGA	-0.0871

Sequence	PBM E-score
GAACCGCA	0.106
AACCTAGA	-0.091
AATGCTAC	-0.138
CTAGTGGA	-0.00518
GTCTCTTA	0.00152
CGCATTCA	0.0783
ACCCAATA	-0.156
CAACACAA	-0.226
ATAACATG	-0.0711
AGCGCTGC	0.0385
TGGGGTAA	0.163
AATGGGCT	-0.324
GCGCGGCC	0.268
CATGCGCA	-0.217
ACGCCCTG	-0.0686
CCGACGCA	0.33
AACCGGAA	0.141
CCGCGTCG	0.283
AAGAGGGG	-0.0776
GCTTTAAA	0.228
GATAATAC	0.0961
AATGTAAG	-0.172
ATACATAT	-0.0276
ACGCAGGA	-0.24
CGCAAATA	0.0421

Sequence	PBM E-score
CCCTCACC	-0.225
GATTTCAC	0.111
GCCGCCAA	0.24
GGGCGTCA	-0.101
ACGAAATC	-0.0971
AGCGATCG	-0.0556
CAATCGCC	0.0945
AATTCAAT	0.0123
ATCAGCAC	-0.156
GAACATGC	-0.305
AGTCGAAC	-0.14
TCCTCTAA	-0.28
TAGGGTGA	-0.139
CCAGACAA	-0.116
TAACCCGA	0.225
TACTACGA	-0.136
CTACCCTA	-0.269
CCGAGTAA	0.0188
CTGAAGAC	0.0792
